Publication PMC4336329 (PLoS ONE, 2015)
Among all 310,000 compounds or so, about 14,000 (4.5%) showed an effect of 50% or more. Effects have a minus sign here. The list shows a part of the results.

biological target: human ether-à-go-go-related gene (hERG) potassium channel (human, UniProt Q12809); experiment: primary screen, population patch clamp on CHO cells stably expressing hERG
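Note: peak tail current of the secondary pulse compared with the same well before compound.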

Chain of human ether-à-go-go-related gene (hERG) potassium channel (Q12809 whole entry, looked up): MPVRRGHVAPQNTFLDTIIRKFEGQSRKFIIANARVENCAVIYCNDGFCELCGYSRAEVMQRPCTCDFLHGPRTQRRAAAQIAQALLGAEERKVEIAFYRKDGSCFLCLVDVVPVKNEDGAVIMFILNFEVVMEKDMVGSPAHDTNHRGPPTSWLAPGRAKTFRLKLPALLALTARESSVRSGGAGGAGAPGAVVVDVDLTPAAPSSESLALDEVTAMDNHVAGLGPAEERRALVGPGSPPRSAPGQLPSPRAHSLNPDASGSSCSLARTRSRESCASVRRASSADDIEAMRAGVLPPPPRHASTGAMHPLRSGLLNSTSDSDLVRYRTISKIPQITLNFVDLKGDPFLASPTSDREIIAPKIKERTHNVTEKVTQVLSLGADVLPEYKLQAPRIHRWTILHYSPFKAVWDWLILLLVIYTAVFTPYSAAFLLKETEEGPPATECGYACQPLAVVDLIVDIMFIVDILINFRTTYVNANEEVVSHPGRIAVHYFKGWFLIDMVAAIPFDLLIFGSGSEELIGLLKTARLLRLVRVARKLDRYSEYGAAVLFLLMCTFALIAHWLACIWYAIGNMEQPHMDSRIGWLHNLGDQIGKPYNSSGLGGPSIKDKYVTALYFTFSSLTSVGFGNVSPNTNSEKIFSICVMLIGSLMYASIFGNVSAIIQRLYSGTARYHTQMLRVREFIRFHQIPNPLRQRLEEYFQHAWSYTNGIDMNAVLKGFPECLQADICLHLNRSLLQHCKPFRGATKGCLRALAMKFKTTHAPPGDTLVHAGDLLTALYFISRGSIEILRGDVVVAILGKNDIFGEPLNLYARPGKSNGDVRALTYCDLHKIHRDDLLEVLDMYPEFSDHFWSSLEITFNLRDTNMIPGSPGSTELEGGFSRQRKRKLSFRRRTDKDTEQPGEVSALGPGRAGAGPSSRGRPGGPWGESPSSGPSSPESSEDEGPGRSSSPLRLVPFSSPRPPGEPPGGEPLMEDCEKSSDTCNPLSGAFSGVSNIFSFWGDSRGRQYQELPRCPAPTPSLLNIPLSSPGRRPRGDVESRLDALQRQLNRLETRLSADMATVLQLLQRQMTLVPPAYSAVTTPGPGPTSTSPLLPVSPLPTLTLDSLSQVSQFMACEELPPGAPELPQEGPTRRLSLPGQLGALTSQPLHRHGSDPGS

Row | Structure (SMILES) | hERG current change (%, negative = inhibition) at 10uM
1 | COc1ccc(NC(=O)COc2ccccc2)cc1NC(=O)c1ccco1 | -30.8%
2 | O=C(Nc1cccc2ccccc12)c1cccc([N+](=O)[O-])c1 | 11.6%
3 | Cc1nc(-c2ccccc2)sc1C(=O)CSc1ccccc1 | -10.8%
4 | O=C(CCN1C(=O)C2C3C=CC(C4CC34)C2C1=O)Nc1ccc(Cl)cc1O (stereo not shown) | 2.41%
5 | O=C(CN(Cc1ccco1)C(=O)Cn1nnc(-c2ccc(F)cc2)n1)NC1CCCC1 | -29.3%
6 | CC(OC(=O)c1ccc2c(c1)S(=O)(=O)c1ccccc1C2=O)C(N)=O (stereo not shown) | 16.7%
7 | C/C(=N\NC(=O)c1ccc(O)cc1)c1cccc(NC(=O)c2ccc(Cl)cc2)c1 | 17.7%
8 | Fc1ccc(/C=N/N2CCN(Cc3ccccc3)CC2)cc1 | -22.1%
9 | O=C(C1CCN(c2ncnc3c2nc2n3CCCCC2)CC1)N1CCN(c2ccccc2F)CC1 | -33.1%
10 | Cc1nonc1CN(C)C(=O)c1ccc(OC2CCN(Cc3ccccn3)CC2)cc1 | -37.5%
11 | CC(C)N1CC(O)=C(c2nc3ccccc3c(=O)[nH]2)C1=N | -2.74%
12 | O=C(Nc1cccc(F)c1)C1CCN(C(=O)N2CCOc3ccccc32)CC1 | -35.9%
13 | CCSc1nnc(Cc2cc(=O)[nH]c(=O)[nH]2)n1-c1ccc(Cl)cc1 | 6.24%
14 | O=C(COc1ccc2ccccc2c1Br)Nc1ccncc1 | 19.5%
15 | Cc1ccc(NC(=O)C2CCN(S(=O)(=O)c3c(C)n[nH]c3C)CC2)nc1 | -23%
16 | COc1ccc(Cl)cc1-c1nc(SCC(=O)NCCN2C(=O)CSC2=O)n[nH]1 | -7.49%
17 | Cc1noc(C)c1C(=O)NCCc1ccc(S(N)(=O)=O)cc1 | -23.7%
18 | COc1ccc(N2C(=O)CC(N3CCN(c4ccccc4OC)CC3)C2=O)cc1 (stereo not shown) | 6.7%
19 | Cc1ccccc1N(CC(=O)N/N=C/c1ccc(F)cc1)C(=O)c1ccccc1 | -23.4%
20 | CCN(CC)c1ccc(/C=C2\SC(N)=NC2=O)cc1 | 7.42%
21 | O=C1Nc2ccc([N+](=O)[O-])cc2OC1CCN1CCCC1 (stereo not shown) | 1.7%
22 | c1ccc(N2CCN(c3nnc(Cc4cccnc4)c4ccccc34)CC2)nc1 | -50.1%
23 | CCOC(=O)C1CCCN(c2c(NCCN3CCCCC3C)c(=O)c2=O)C1 (stereo not shown) | 5.47%
24 | COc1ccc(S(=O)(=O)NCCCN2CCCC2=O)cc1OC | 9.12%
25 | C=CCN1C(=O)/C(=C\c2ccc(N3CCOCC3)o2)C(=O)NC1=S | 4.36%
26 | Cc1ccccc1NC(NC(=O)c1cccnc1)C(Cl)(Cl)Cl (stereo not shown) | -1.3%
27 | CCN1C(=O)/C(=C\N(C)C)S/C1=N\S(=O)(=O)c1ccc(C)cc1 | 19.3%
28 | CN(NS(=O)(=O)c1ccc(F)cc1)c1ncc(C(F)(F)F)cc1Cl | -14.1%

Row | Structure (SMILES) | hERG current change (%, negative = inhibition) at 10uM
29 | CC(=O)c1ccc(N2CCN(c3ccc(S(=O)(=O)NCCCN(C)C)cc3[N+](=O)[O-])CC2)cc1 | -18.1%
30 | O=C(Cc1ccc(O)cc1)N/N=C/c1cccs1 | 18.8%
31 | Cc1ccccc1C(=O)N1CCC(C(=O)OCC(=O)Nc2cccc([N+](=O)[O-])c2C)CC1 | -24.7%
32 | COc1ccc(CCNC(=O)C(C)OC(=O)c2nsc(Cl)c2Cl)cc1OC (stereo not shown) | 12.4%
33 | O=C(NN(c1ccccc1)c1ccccc1)c1ccccc1F | 13.2%
34 | Cl.OCCNCc1cc(Br)ccc1OCc1ccc(F)cc1 | -49.7%
35 | CC(CC(=O)NCCc1ccc(F)cc1)c1ccccc1 (stereo not shown) | -6.32%
36 | CCOc1ccc(-c2nc(-c3ccncc3)no2)cc1OCC | 14.2%
37 | Cc1nc2sc3c(c2c2nnc(SCC(=O)NCc4ccco4)n12)CCCC3 | -28.2%
38 | COc1ccc(N2C(C(C)=O)=NN(c3ccccc3)C2c2cccs2)cc1 (stereo not shown) | 10.5%
39 | Cc1ccc(C)c(NC(=O)[C@@H]2CCCN2S(=O)(=O)c2ccccc2F)c1 | 10.9%
40 | CNc1ccccc1C(=O)OCC(=O)c1ccc(F)cc1 | 0.751%
41 | COc1ccccc1-c1cc2nc(C)c(CCC(=O)NC(C)CCc3ccco3)c(C)n2n1 (stereo not shown) | -62.5%
42 | Cc1ccc(F)cc1NC(=O)Cc1ncc(C(F)(F)F)cc1Cl | 7.66%
43 | CC(Oc1ccc(S(=O)(=O)N2CCCC2)cc1[N+](=O)[O-])C(=O)NC(C)c1ccccc1 (stereo not shown) | -10.2%
44 | CCOc1ncccc1C(=O)OCC(=O)Nc1ccc2c(c1)OCO2 | 12.6%
45 | NS(=O)(=O)c1ccc(CCNC(=O)CSc2nc3ccsc3c(=O)n2C2CC2)cc1 | 0.862%
46 | CCOc1cc(CN2CCN(Cc3ccc(C)o3)C(CCO)C2)ccc1OC (stereo not shown) | -3.33%
47 | CNC(=O)CSc1nc(-c2ccccc2)c(-c2ccccc2)o1 | 5.63%
48 | COCCC(=O)N1CCC(Oc2ccc(C(=O)NC3CCCCC3)cc2)CC1 | -0.0745%
49 | O=C(C1CCC1)N1CCN(S(=O)(=O)c2ccc([N+](=O)[O-])cc2)CC1 | -62.6%
50 | Cc1ccc2c(c1)N(C(=O)CCC(=O)NC1CCCCCC1)CCO2 | -12.2%
51 | O=C(CSc1nccn1-c1ccccc1)NCc1ccc2c(c1)OCO2 | -18.1%
52 | O=C(/C=C/c1ccc(F)cc1)NCc1ccco1 | -3.95%
53 | COc1cc([N+](=O)[O-])cc(/C=N/NC(=O)C(C)Nc2cccc(C)c2)c1O (stereo not shown) | 22.7%
54 | CC1CSc2nc3sc4c(c3c(=O)n21)CCCC4 (stereo not shown) | -6.48%
55 | CCCCC(=O)NC(c1ccc(N(CC)CC)cc1)c1ccc2cccnc2c1O (stereo not shown) | 3.92%
